# Test results as given in PubChem BioAssay AID2546 (National Center for Advancing Translational Sciences (NCATS), 2010).
# Among all 310,000 compounds or so, about 11,000 (3.5%) were called active. Inconclusive means that the source gave no clear call. Such entries were picked first, then a sample of the others. Calls come from the whole dose curve; as a rule, active = well fitted inhibition curve with a large enough effect; inconclusive = small, poorly fitted or top-dose-only effect, or effect the other way; inactive = flat fitted curve, though single readings scatter. Potencies of inconclusive entries are left out as doubtful fits.
# Assay: VP16 counterscreen qHTS for inhibitors of ROR gamma transcriptional activity;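 note: Gal4-VP16 expression switched on by copper sulfate through the metallothionein promoter; nearly all actives have a fitted effect of over 50% in size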
# Conditions: Drosophila S2 Gal4-VP16 UAS-luciferase, luminescence, 20 h; series mostly up to 53.6 µM
# Potency is the fitted concentration of half-maximal effect; tags give direction and shape of the fitted curve.
row,SMILES,Potency
1,COC(=O)C1C(=O)c2c([nH]c(C(=O)OCCOC(C)C)c2C)CC1C (centres undefined),"inconclusive [inhibitor, single point]"
2,O=C(CC1OCC2CCCN2C1=O)Nc1ccc([N+](=O)[O-])cc1 (centres undefined),"inconclusive [inhibitor, single point]"
3,Oc1c(C(c2ccc(Cl)cc2)N2CCCC2)cc(Cl)c2cccnc12 (centres undefined),"inconclusive [inhibitor, full curve, poor fit]"
4,COc1ccc2oc(C)c(C(=O)c3ccc(C)cc3)c2c1,"inconclusive [activator, single point]"
5,Cc1ccc(C(=O)N/C(=C\c2ccco2)C(=O)NCCCn2ccnc2)cc1C,"inconclusive [inhibitor, single point]"
6,CCN1CCN(Cc2ccc(NC(=O)Nc3ccccc3)cc2)CC1,"inconclusive [inhibitor, single point]"
7,O=C(NNc1nc(-c2ccccc2)c2cc(Br)ccc2n1)c1ccc(S(=O)(=O)N2CCOCC2)cc1,active: 12.6 µM
8,CC1CCCCN1S(=O)(=O)c1ccc(C(=O)Nc2nnc(-c3ccccn3)o2)cc1 (centres undefined),active: 5.01 µM
9,CCN(CC)c1nc(=S)nc(NC(C)(C)C)[nH]1,active: 3.16 µM
10,Cc1ccc(S(=O)(=O)Nc2cccc3ccc(C)nc23)cc1,"inconclusive [inhibitor, single point]"
11,O=[N+]([O-])c1ccc(N2CCN(c3ccc(O)cc3)CC2)c(Cl)c1,"inconclusive [activator, single point]"
12,CCn1c(-c2ccc(C(C)(C)C)cc2)n[nH]c1=S,active: 3.16 µM
13,O=C(NN1C(=O)c2ccccc2NC1c1ccccn1)c1ccc(Br)cc1 (centres undefined),"inconclusive [inhibitor, single point]"
14,COc1ccc(C(=O)NCCSc2ccccc2)cc1,"inconclusive [inhibitor, partial curve, poor fit]"
15,COc1ccc(OCCC(=O)OCC(=O)NCc2ccco2)cc1,inactive
16,CC(=N\NC(=O)c1ccc([N+](=O)[O-])cc1)/C(=N/O)C(=O)Nc1ccccc1,active: 6.31 µM
17,CCOC(=O)c1c(C)c(C(=O)Nc2ccc(N(C)C)cc2)c(C)n1CC,"inconclusive [inhibitor, single point]"
18,Cc1ccc(C)c(NC(=S)N/N=C/C(C)c2ccccc2)c1 (centres undefined),active: 7.08 µM
19,O=[N+]([O-])c1ccc(N/N=C/c2sc(N3CCOCC3)nc2-c2ccccc2)c(S(=O)(=O)Nc2ccc(Cl)cc2)c1,active: 3.16 µM
